Results from PubChem BioAssay AID588855 (National Center for Advancing Translational Sciences (NCATS), 2011).
Hit rate of the full screen: of about 410,000 compounds, about 5,000 (1.2%) were called active. This list was built around the results that the source calls inconclusive (neither active nor inactive); the mix of calls is not that of the screen. Calls come from the whole dose curve; as a rule, active = well fitted inhibition curve with a large enough effect; inconclusive = small, poorly fitted or top-dose-only effect; inactive = no such curve, though single readings can be large or run the other way. Potencies beside an inconclusive call are fits to weak or partial responses and may not hold up.

experiment: qHTS for Inhibitors of TGF-b; settings: HepG2 CAGA-GFP TGF-b/SMAD3 reporter, GFP fluorescence, 18 h, TGF-beta stimulated, 500 pg/mL final; series mostly up to 46.1 µM; note: nearly all actives have a fitted effect of over 65% in size
Method in brief: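 HEPG2 CAGA-GFP cells (1000/well, DMEM with 1% FBS) were pre-incubated 2 h at 37 degrees C, given compound by pin tool, then stimulated with TGF-beta at 500 pg/mL final for 18 h before per-cell GFP fluorescence imaging.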
Potency is the fitted concentration of half-maximal effect; tags give direction and shape of the fitted curve.

SMILES	Potency
Cc1cc(NC(=O)CSc2nc3c(sc4ccccc43)c(=O)n2CCCN2CCOCC2)n[nH]1	inactive
O=C(NC1CCCCC1)c1cccs1	inactive
Cc1onc(-c2ccccc2Cl)c1C(=O)N1CCC(C)CC1	inconclusive: 35.5 µM [inhibitor, single point]
NS(=O)(=O)c1ccc(CCNC(=O)CSc2nnc3ccccn23)cc1	inconclusive: 35.5 µM [inhibitor, single point]
Cc1cc(NC(=O)CCC(=O)N(Cc2ccco2)C(C(=O)NC2CCCC2)c2ccccc2C)no1 (centres undefined)	inactive
CCN1CCCC1CN(Cc1cc2ccc(C)cc2[nH]c1=O)C(=S)Nc1cccc(OC)c1 (centres undefined)	inactive
COc1ccccc1NS(=O)(=O)c1cccc(NC(=O)C2CC2)c1	inactive
CCOC(=O)C1=C(C)OC(N)=C(C#N)C1c1cc(F)ccc1F (centres undefined)	inconclusive: 20 µM [inhibitor, partial curve, poor fit]
Cc1ccc(NC(=O)CN2CCCCCC2)c(Br)c1	inconclusive: 15.8 µM [inhibitor, single point]
COc1ccc(C(O)c2ncc(-c3ccc(Cl)cc3)[nH]2)cc1 (centres undefined)	inactive
O=C(O)CN1C(=O)C(=O)N(Cc2ccc(Cl)cc2Cl)C1=O	inactive
CN1CCN(c2ccc(NC(=S)NC(=O)c3cccc4ccccc34)cc2)CC1	inconclusive: 35.5 µM [inhibitor, single point]
COC(=O)c1cccc(-n2sc3ccccc3c2=O)c1	inconclusive: 15.8 µM [inhibitor, partial curve, poor fit]
CC(=O)N1c2ccc(S(=O)(=O)N3CCN(c4cc(Cl)ccc4C)CC3)cc2CC1C (centres undefined)	inconclusive: 6.31 µM [inhibitor, single point]
c1ccc(Cc2nc3ccccc3n2Cc2ccccc2)cc1	inconclusive: 8.91 µM [inhibitor, partial curve, poor fit]
O=c1c(-c2ccc([N+](=O)[O-])cc2)coc2c(O)c(O)ccc12	inactive
O=C(/C=C/c1cccs1)Nc1ccc(Br)cn1	inconclusive: 17.8 µM [inhibitor, single point]
COc1ccc(-c2nc(C)c(CCNC(=O)c3ccco3)s2)cc1	inactive
CCOC(=O)c1cc2c(=O)n3ccccc3nc2n(C(C)C)c1=NC(=O)c1ccncc1	inconclusive: 3.55 µM [inhibitor, full curve, poor fit]
COc1ccc(C2CC(=O)c3cnn(-c4nc(C)cc(C)n4)c3C2)cc1 (centres undefined)	inactive
Cc1ccccc1COC(=O)c1ccc(-c2nnn(Cc3ccccc3F)n2)cc1	inactive
COc1ccc(C(CC(=O)N2CCCCC2)c2c(OC)cc(OC)c3ccc(=O)oc23)cc1 (centres undefined)	inconclusive: 1.26 µM [inhibitor, full curve, poor fit]
O=C(CN1C(=O)c2ccccc2S1(=O)=O)NCc1cccs1	inactive

SMILES	Potency
Cc1csc(SCC(=O)NC(C)C2CC3CCC2C3)n1 (centres undefined)	inactive
CC(=O)N1C(c2ccccc2O)C[C@]2(C)CC(=O)NC12 (some centres undefined)	inconclusive: 22.4 µM [inhibitor, single point]
COc1ccc(OCCn2cc(C(=O)c3ccco3)c3ccccc32)cc1	inactive
CCC(=O)N1CCc2cc(S(=O)(=O)NC(Cc3ccccc3)C(=O)NCc3ccc(C)cc3)ccc21 (centres undefined)	inactive
CCOc1ccccc1CN1C(=O)c2ccccc2C1C(=O)NC1CCCCCC1 (centres undefined)	inactive
Cc1csc(NC(=O)C2CCCCN2S(=O)(=O)c2ccccc2)n1 (centres undefined)	inconclusive: 17.8 µM [inhibitor, single point]
Cc1ccc(S(=O)(=O)C(C#N)c2nc3ccccc3nc2N2CCN(C)CC2)cc1C (centres undefined)	inconclusive: 11.2 µM [inhibitor, single point]
Cc1ccc(-c2nnc(Cc3ccc(Cl)cc3)o2)cc1	inconclusive: 6.31 µM [inhibitor, single point]
C[C@H](O)[C@@H]1C(=O)N2CCc3ccc(-c4ccccc4)cc3[C@@H]2C[C@@H]1N(C)C(=O)NC1CCCCC1	inconclusive: 17.8 µM [inhibitor, single point]
Cc1nnc(C)c2c(C)n(Cc3ccc4c(c3)OCO4)c(C)c12	inconclusive: 8.91 µM [inhibitor, partial curve]
O=C(c1ccccc1)C1OC1C(=O)c1ccccc1 (centres undefined)	inconclusive: 35.5 µM [inhibitor, single point]
C=C(NC(=O)C(=C)NC(=O)c1csc(C2=NC3c4csc(n4)C4NC(=O)c5csc(n5)C(C(C)(O)C(C)O)NC(=O)C5CSC(=N5)/C(=C/C)NC(=O)C(C(C)O)NC(=O)c5csc(n5)C3(CC2)NC(=O)C(C)NC(=O)C(=C)NC(=O)C(=C)NC(=O)C(C(C)C)NC2C=Cc3c(C(C)O)cc(nc3C2O)C(=O)OC4C)n1)C(N)=O (centres undefined)	active: 8.91 µM
CCN1C(=O)C(O)(CC(=O)c2ccccn2)c2ccccc21 (centres undefined)	inactive
COc1ccc(-c2cnc3c(NC=O)cc(-c4cccc(NS(C)(=O)=O)c4)cn23)cc1OC	inconclusive: 7.08 µM [inhibitor, partial curve, poor fit]
COc1ccc(S(=O)(=O)N2CCC(C(=O)N3CCCCC3)CC2)cc1	inactive
Cc1ccc(S(=O)(=O)N(CC(=O)NCCSc2ccccn2)c2ccccc2F)cc1	inactive
O=C(CCCC(=O)N(CC(=O)NC1CCCCC1)c1cccc(F)c1)Nc1ccccn1	inconclusive: 11.2 µM [inhibitor, single point]
CSc1nc(N)nc2c1ncn2CC(=O)NCc1ccc2[nH]ccc2c1	inconclusive: 20 µM [inhibitor, partial curve]
COc1ccc2c(c1OC)CCC2=O	inconclusive: 2.51 µM [inhibitor, partial curve, poor fit]
COc1cc(CNCCNC(=O)c2nonc2N)ccc1OCc1ccc(Cl)cc1	inconclusive: 35.5 µM [inhibitor, single point]
COc1ccccc1NS(=O)(=O)c1cccc(C(=O)N2CCN(C/C=C/c3ccccc3)CC2)c1	inconclusive: 5.62 µM [inhibitor, single point]
Cc1oc2ccc(O)c(CN3CCN(C)CC3)c2c1C(=O)Nc1ccc(C(C)C)cc1	inactive
O=C(c1ccc(Cl)cc1)C(CN1CCCC1)c1ccccc1 (centres undefined)	active: 7.94 µM

SMILES	Potency
CN(C)c1cc[n+](Cc2c(Cl)cccc2Cl)cc1	inconclusive: 3.16 µM [inhibitor, partial curve, poor fit]
CCCC[C@@H]1CNC(=O)C(=O)N1CC(C)(C)C	inconclusive: 35.5 µM [inhibitor, single point]
Cc1cnc(C(=O)OCC(=O)Nc2ccc(Br)cc2F)cn1	inconclusive: 35.5 µM [inhibitor, single point]
Cc1ccc(C2=NOC(=O)/C2=C\C=C\c2ccccc2)cc1	inconclusive: 0.708 µM [inhibitor, full curve]
Cc1cccc(N2C(=O)C(CC(=O)Nc3ccc(F)cc3)N(C3CCCC3)C2=O)c1 (centres undefined)	inconclusive: 0.112 µM [inhibitor, full curve, poor fit]
CCOC(=O)CNC(=O)c1ccc2[nH]c3c(c2c1)CCCC3	inconclusive: 35.5 µM [inhibitor, single point]
Cc1cc2oc(=O)c(CC(=O)NCCCN(C)C)c(C)c2c2occ(C(C)(C)C)c12	inconclusive: 35.5 µM [inhibitor, single point]
COc1ccc(CC(=O)NCCc2ccc3c(c2)OCO3)cc1OC	inactive
CC(=O)c1c(O)cc2n(c1=O)-c1ccc(Cl)cc1C2(C)C	inconclusive: 2.82 µM [inhibitor, single point]
Cc1ccccc1NC(=O)C1CCN(S(=O)(=O)c2ccccc2)CC1	inactive
CN(Cc1ccccc1)c1ccc(C(CC(N)=O)NC(=O)Cc2ccc(Br)cc2)cc1[N+](=O)[O-] (centres undefined)	inconclusive: 11.2 µM [inhibitor, single point]
O=C(/C=C/Nc1ccc(F)c(Cl)c1)c1ccco1	inconclusive: 20 µM [inhibitor, single point]
Cc1cc(C)c2c(C)nn(-c3ccccc3)c2n1	inactive
CCCCn1c(SCC(=O)NCc2ccco2)nc2cc(S(N)(=O)=O)ccc21	inactive
COc1ccc(S(=O)(=O)N2CCC(C(=O)NCCN3CCOCC3)CC2)cc1C	inconclusive: 25.1 µM [inhibitor, single point]
Cc1ccc(CNC(=O)c2sc3ncnc(N(C)C4CCCCC4)c3c2C)cc1	inconclusive: 15.8 µM [inhibitor, single point]
Oc1c(C(Nc2cccnc2)c2ccc(C(F)(F)F)cc2)ccc2cccnc12 (centres undefined)	inconclusive: 14.1 µM [inhibitor, partial curve]
O=S(=O)(c1cc(O)ccc1O)c1cccc2c(S(=O)(=O)c3cc(O)ccc3O)cccc12	inconclusive: 10 µM [inhibitor, partial curve, poor fit]
CCOC(=O)c1c(CSc2ccc(CC)cc2)oc2ccc(O)c(CN(C)C)c12	inconclusive: 35.5 µM [inhibitor, single point]
O=C(CNC1CCCCC1)NN=C(c1ccccc1)c1ccccc1	inactive
CO[C@H](C(=O)N(C)C[C@@H]1OCc2ccccc2-c2c(n(C)c3ccccc23)C(=O)N([C@H](C)CO)C[C@@H]1C)c1ccccc1	inactive
O=S(=O)(/N=C(/Nc1cccc2ccccc12)c1ccccc1)c1cccs1	inactive
Cc1ccc(S(=O)(=O)N(CC(=O)NCc2ccncc2)Cc2ccc(F)cc2)cc1	inconclusive: 11.2 µM [inhibitor, partial curve, poor fit]
